# Source: PubChem BioAssay AID1345083 (National Center for Advancing Translational Sciences (NCATS), 2018)
# About 6,200 (6.6%) of roughly 94,000 compounds were called active. The inconclusive results got no clear call from the source; some entries with a clear call stand among them for comparison. The call rests on the fitted dose curve; in most records, active means well fitted inhibition curve with a large enough effect; inconclusive means small, poorly fitted or top-dose-only effect; inactive means flat fitted curve, though single readings scatter. Potencies of inconclusive entries are doubtful fits and often do not repeat.
# Test: Cytotoxic Profiling in HEK 293 Cell Line of Diverse Libraries Using Quantitative High-Throughput Screening; further: nearly all actives have a fitted effect of over 60% in size
# Conditions: HEK 293 viability, ATP luminescence (CellTiter-Glo), 48-72 h; series mostly up to 115 µM
# Summary of the method: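 qHTS cytotoxicity; HEK 293, 250 cells/well; compound pinned; 48 or 72 hr, 37 degree Celsius, 5% CO2, 95% humidity; CellTiter-Glo, 10 min RT; luminescence (ATP).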
# Potency means the concentration at half of the fitted maximal effect; tags describe the fitted curve by direction and shape.
row,Structure (SMILES),Potency
1,N#Cc1cccnc1-c1ccc(C(=O)N2CCC(NC(=O)c3ccccn3)CC2)cc1,"inconclusive: 56.2 µM [inhibitor, partial curve, poor fit]"
2,CCc1ccccc1NC(=O)c1cc2c(N3CCSCC3)nc(C)cn2n1,"inconclusive: 50.1 µM [inhibitor, partial curve, poor fit]"
3,CCCC(=O)N1CC(c2nc(C)no2)C2(CCOCC2)C1 (stereo unspecified),inactive
4,CCC1CN(C(=O)c2ccc3ccccc3n2)CCC(=O)N1Cc1ccccc1 (stereo unspecified),"inconclusive: 11.2 µM [inhibitor, partial curve, poor fit]"
5,COCC(=O)N1CC(CNc2ccccc2)C2(C1)CN(c1ccccc1)C2 (stereo unspecified),"inconclusive: 112 µM [inhibitor, single point]"
6,CC(C)(C)C(=O)NC1CCCN(c2ccc3nnc(-c4ccccc4)n3n2)C1 (stereo unspecified),"inconclusive: 50.1 µM [inhibitor, partial curve, poor fit]"
7,O=C(Nc1ccc([C@@H](O)[C@H]2COCC(=O)N2Cc2ccccn2)cc1)C1CC1,inactive
8,COc1ccc(NC(=O)C2CCc3nnc(CN[S+](=O)([O-])c4ccccc4Cl)n32)cc1 (stereo unspecified),inactive
9,O=[S+]1([O-])NC2(CCN(Cc3ccccc3)CC2)COc2ccccc21,inactive
10,O=C(c1ccccc1F)N1CC2(Cc3ccccc3NC2=O)C1,inactive
11,COc1cccc(NC(=O)[C@@H]2C[C@@H](c3ccc(F)cc3)N([S+](=O)([O-])c3cccnc3)C2)c1,"inconclusive: 50.1 µM [inhibitor, partial curve, poor fit]"
12,COc1ccc(C(=O)N2CCC3(CC2)C(OC)CN3c2cccc(F)c2)cc1F (stereo unspecified),"inconclusive: 44.7 µM [inhibitor, partial curve, poor fit]"
13,CCCc1nc(C)cc(N2CCC3(CC2)C(C(=O)O)CC(=O)N3C)n1 (stereo unspecified),inactive
14,Cc1cn2nc(C(=O)Nc3cccc(F)c3)cc2c(N(C)Cc2ccccc2)n1,"inconclusive: 39.8 µM [inhibitor, partial curve]"
15,Cc1cn2nc(C(=O)N3CCC(NC(=O)c4ccccc4Cl)CC3)cc2c(=O)[nH]1,inactive
16,O=C(Nc1ccccc1C(F)(F)F)N1CCCC(Cn2cnc3cccnc32)C1 (stereo unspecified),"inconclusive: 39.8 µM [inhibitor, partial curve]"
17,CCOc1ccccc1NC(=O)N1CCCN(S(=O)(=O)c2ccccc2)CCC(=O)NCC1,inactive
18,O=C(c1nnc(CNC2CCOCC2)n1Cc1ccccc1)N1CCC[C@@H]1c1ccc(Br)cc1,inactive
19,CCNC(=O)N1CCC(Cc2ccc(C(=O)Nc3cccc(F)c3)cc2)CC1,active: 39.8 µM
20,CN1CCC2(CC1)CN(C(=O)CCc1ccccc1)Cc1ccccc1O2,"inconclusive: 89.1 µM [inhibitor, single point]"
21,COc1ccc(NC(=O)Cn2cccc2-c2nc(-c3ccc(F)cc3)no2)cc1Cl,inactive

row,Structure (SMILES),Potency
1,CN1CCN(c2nc3c(s2)CN(C(=O)c2ccccc2)CC3)CC1,"inconclusive: 89.1 µM [inhibitor, single point]"
2,C[S+](=O)([O-])N1CCN(Cc2ccccc2-c2cccnc2)CC1,"inconclusive: 100 µM [inhibitor, partial curve, poor fit]"
3,Cc1cc(=O)n(CC(=O)Nc2cccc(Cl)c2)c(N2CCc3ccccc3C2)n1,"inconclusive: 17.8 µM [inhibitor, full curve, poor fit]"
4,COCC(=O)N[C@@H]1CN(Cc2ccc(F)cc2Cl)C[C@H]1CO,inactive
5,CN(C)c1nc2c(c(=O)[nH]1)CCN(Cc1ccc(F)cc1Cl)CC2,inactive
6,O=C(C1CCCN1C(=O)Cc1cccc(Cl)c1)N1CCC(N2Cc3ccccc3C2=O)CC1 (stereo unspecified),"inconclusive: 50.1 µM [inhibitor, partial curve, poor fit]"
7,COc1ccc(CC(=O)Nc2ccc3c(c2)CN(Cc2ccc(OC)cc2OC)C(=O)C(C)O3)cc1 (stereo unspecified),"inconclusive: 56.2 µM [inhibitor, partial curve, poor fit]"
8,COc1ccc(OC2CN(C(=O)c3ccc(C)cc3)C2)cc1,"inconclusive: 100 µM [inhibitor, partial curve]"
9,CC(C)(C)c1ccc(C(=O)Nc2nc3c(s2)C[C@@H]2[C@](C)(CO)[C@H](O)CC[C@@]2(C)[C@@H]3CC(=O)N2CCC(C(N)=O)CC2)cc1,"inconclusive: 89.1 µM [inhibitor, partial curve]"
10,COc1cc(CN2C[C@@H](CO)[C@H](c3nc(C)no3)C2)ccc1F,"inconclusive: 39.8 µM [inhibitor, single point]"
11,Cc1ccc2c(n1)N(C)[C@H](CO)CCN(Cc1ccc(F)c(F)c1)C2,"inconclusive: 126 µM [inhibitor, single point]"
12,COc1ccc(CNC(=O)C[C@@H]2CCNC[C@@H]2Cc2cc(COc3ccccc3)on2)cc1OC,"inconclusive: 89.1 µM [inhibitor, single point]"
13,COc1ccccc1-c1nnc2ccc(C(=O)NCCc3ccccc3F)cn12,"inconclusive: 79.4 µM [inhibitor, partial curve, poor fit]"
14,O=S(=O)(Cc1ccccc1)N1CCC(F)(c2nc(-c3ccncc3)no2)CC1,"inconclusive: 50.1 µM [inhibitor, partial curve, poor fit]"
15,COCCOc1ccc(-c2noc([C@@H]3CCCN3C3CCCCC3)n2)cn1,active: 100 µM
16,CN1CCC(N[C@H]2C[C@@H](Cc3cc(-c4ccc(F)cc4)on3)C2(C)C)CC1,active: 8.91 µM
17,O=C(CCCc1ccccc1)Nc1cccc(-c2nnc3n2CCCC3)c1,"inconclusive: 79.4 µM [inhibitor, partial curve, poor fit]"
18,CC(C(=O)NCC1CCN(Cc2ccc(F)cc2)CC1)C1CCOCC1 (stereo unspecified),inactive
19,CC(C)c1nc2c(c(-c3ccc(O)cc3)n1)CN(Cc1cccc3ccccc13)CC2,"inconclusive: 56.2 µM [inhibitor, partial curve, poor fit]"
20,CCOC(=O)C[C@@H]1C[C@@H](C(C)C)[C@H](CNS(=O)(=O)c2ccc(OC)cc2)C=C1C,active: 39.8 µM
